Data taken from PubChem BioAssay AID504832 (National Center for Advancing Translational Sciences (NCATS), 2011).
Screen size: about 310,000 compounds; about 18,000 (5.8%) were called active. The inconclusive results got no clear call from the source; some entries with a clear call stand among them for comparison. Calls follow the shape of the dose curve; as a rule, active = well fitted inhibition curve with a large enough effect; inconclusive = small, poorly fitted or top-dose-only effect, or another doubt; inactive = no such curve, though single readings can be large or run the other way. Potencies of inconclusive entries are left out as doubtful fits.

assay: Primary qHTS for delayed death inhibitors of the malarial parasite plastid, 48 hour incubation; conditions: P. falciparum luciferase growth in erythrocytes; series mostly up to 28.7 µM; activity change, negative = inhibition: at the top concentration
Method in brief: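 Luciferase-expressing P. falciparum in infected erythrocytes (2% hematocrit, 0.1% parasitemia final) in RPMI 1640/0.5% Albumax were exposed to compound for 48 hours at 37 C, 5% CO2; growth read as luminescence.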
% is scaled to controls: 0 for no effect and ±100 for the full control effect; potency is read from the fitted curve at half-maximal effect; tags tell the direction and shape of the fitted curve.

| Compound | activity change, negative = inhibition | Potency |
| --- | --- | --- |
| COC(C[C@H](O)C[C@H](O)[C@H](C)OCc1ccccc1)OC | inactive: 49.7% | – |
| CCS(=O)(=O)c1ccc2oc(SCC(=O)NCCc3ccccc3)nc2c1 | inactive: -23.2% | – |
| CC1=C(C(=O)Nc2cccc(C(=O)NC(C)c3ccccc3)c2)SCCO1 (stereo not drawn) | – | inconclusive [inhibitor, partial curve, poor fit] |
| Cn1c(SCCSc2nnc(-c3ccccc3)n2C)nnc1-c1ccccc1 | inactive: 0% | – |
| COC(=O)c1c(NC(=O)C2CC(=O)NN2Cc2ccccc2)sc(C)c1C (stereo not drawn) | – | inconclusive [inhibitor, full curve, poor fit] |
| COc1ccc(/C=C/C(=O)NC(C)C)cc1Br | – | inconclusive [inhibitor, partial curve] |
| O=C(CN1CCCCC1)Nc1ccc(Br)cc1C(=O)c1ccccc1Cl | – | inconclusive [inhibitor, partial curve, poor fit] |
| CCOC(=O)c1cnc2c(C)cccc2c1NCCc1ccc(OC)c(OC)c1 | – | inconclusive [inhibitor, single point] |
| Cc1ccc(N2CCN(CCc3nc4cc(NC(=O)c5ccco5)ccc4n3C)CC2)cc1 | – | inconclusive [inhibitor, single point] |
| O=C(c1cn(Cc2ccccc2)nc1-c1cccnc1)N1CCN(Cc2c(F)cccc2Cl)CC1 | – | inconclusive [inhibitor, single point] |
| COc1ccc(CN2CCN(C(=O)c3c(-c4ccccc4)noc3C)CC2)cc1F | – | inconclusive [inhibitor, single point] |
| O=C(c1cccs1)N(Cc1ccc(F)cc1)C1CCS(=O)(=O)C1 (stereo not drawn) | – | inconclusive [inhibitor, partial curve, poor fit] |
| O=C1CC(c2ccccc2)CC(O)=C1C=Nc1ccccc1O (stereo not drawn) | – | inconclusive [inhibitor, single point] |
| Cc1cc(NC2C3CC4CC(C3)CC2C4)n2nnnc2n1 (stereo not drawn) | – | inconclusive [inhibitor, full curve] |
| CC(C)CN(C(=O)C(C)N1C(=O)c2ccccc2C1=O)c1c(N)n(Cc2ccccc2)c(=O)[nH]c1=O (stereo not drawn) | inactive: 0.808% | – |
| Cn1c(SCC(=O)NC2CCCCC2)nnc1-c1ccc(N)cc1 | inactive: 59.1% | – |
| Cc1ccc(S(=O)(=O)N2CCC(C(=O)OC(C)C(=O)NC3CCCCC3C)CC2)cc1C (stereo not drawn) | – | inconclusive [inhibitor, partial curve] |
| CCCN(C(=O)C(NC(=O)c1ccccc1)C(C)C)c1c(N)n(Cc2ccccc2)c(=O)[nH]c1=O (stereo not drawn) | – | inconclusive [inhibitor, single point] |
